Experimental data from PubChem BioAssay AID1460 (National Center for Advancing Translational Sciences (NCATS), 2008).
Among all 270,000 compounds or so, about 5,800 (2.1%) were called active. Inconclusive means that the source gave no clear call. Such entries were picked first, then a sample of the others. Calls come from the whole dose curve; as a rule, active = well fitted inhibition curve with a large enough effect; inconclusive = small, poorly fitted or top-dose-only effect; inactive = flat fitted curve, though single readings scatter. Where the call is inconclusive, the potency comes from a doubtful curve fit.
% is set by controls: 0 for no effect and ±100 for the full control effect; potency is the fitted concentration of half-maximal effect; tags give direction and shape of the fitted curve.
Note: nearly all actives have a fitted effect of over 55% in size.

The compounds below were run against Microtubule-associated protein tau (Homo sapiens) (UniProt P10636) (assay: qHTS for Inhibitors of Tau Fibril Formation, Thioflavin T Binding). Conditions: recombinant tau K18 P301L, heparin-induced fibrillization, ThT fluorescence; series mostly up to 57.4 µM; activity, negative = inhibition: at the top concentration.
UniProt P10636, sequence (P10636 whole entry, looked up): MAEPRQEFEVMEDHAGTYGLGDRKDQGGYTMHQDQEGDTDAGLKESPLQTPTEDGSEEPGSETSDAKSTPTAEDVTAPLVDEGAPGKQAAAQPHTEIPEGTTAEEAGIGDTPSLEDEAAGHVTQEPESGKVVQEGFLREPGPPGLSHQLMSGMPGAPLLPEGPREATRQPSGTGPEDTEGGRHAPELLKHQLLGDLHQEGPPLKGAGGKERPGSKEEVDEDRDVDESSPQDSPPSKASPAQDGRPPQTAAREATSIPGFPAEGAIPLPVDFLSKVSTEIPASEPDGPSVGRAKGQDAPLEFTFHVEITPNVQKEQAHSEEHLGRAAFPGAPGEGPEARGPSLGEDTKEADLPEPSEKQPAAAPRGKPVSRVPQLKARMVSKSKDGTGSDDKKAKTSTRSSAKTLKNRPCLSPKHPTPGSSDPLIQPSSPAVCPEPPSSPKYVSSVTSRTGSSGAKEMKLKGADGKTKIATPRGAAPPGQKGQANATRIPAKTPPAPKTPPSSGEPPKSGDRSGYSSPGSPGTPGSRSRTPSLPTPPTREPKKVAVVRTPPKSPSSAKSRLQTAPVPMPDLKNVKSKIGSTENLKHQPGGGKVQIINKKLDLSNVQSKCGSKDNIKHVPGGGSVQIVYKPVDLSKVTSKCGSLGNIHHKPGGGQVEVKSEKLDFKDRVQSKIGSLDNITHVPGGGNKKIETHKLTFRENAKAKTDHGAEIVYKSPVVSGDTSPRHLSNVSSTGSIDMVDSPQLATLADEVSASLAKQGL
Summary of the method: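 Using a mix of unlabeled (15 uM) and Alexa 594-labeled (0.24 uM) tau K18 P301L, heparin-triggered fibrillization over 6 hr at 37 C was scored by ThT fluorescence.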
For `Cc1ccc(NC(=O)c2cc(S(=O)(=O)NCCc3ccc(Cl)cc3)ccc2F)cc1`, the Potency was inconclusive: 39.8 µM [activator, single point].
For `O=C(Nc1nc2c(F)cc(F)cc2s1)C1CC(=O)N(Cc2ccco2)C1` (stereo unspecified), the Potency was inconclusive: 17.8 µM [inhibitor, partial curve].
With `O=C(Nc1cnc(N2CCN(c3ccccc3)CC2)c(C(=O)O)c1)c1cccs1` the Potency was inconclusive: 15.8 µM [inhibitor, partial curve].
With `CN1CCc2c(sc3c2C(=O)NC(c2ccc(C(C)(C)C)cc2)N3)C1` (stereo unspecified) the Potency was active: 15.8 µM.
For `C/C=C/c1ccc(OCCCCOc2ccccc2C(C)=O)c(OC)c1`, the Potency was inconclusive: 22.4 µM [inhibitor, single point].
For `S=C(Nc1ccccc1Cl)N1CCCCC1`, the “activity, negative = inhibition” value was inactive: -5.61%.
For `CC1CCN(S(=O)(=O)c2ccc3c(ccc(=O)n3CC(=O)Nc3cccc(F)c3)c2)CC1`, the “activity, negative = inhibition” value was inactive: 9.02%.
With `CSCCC1COC(c2cccs2)=N1` (stereo unspecified) the “activity, negative = inhibition” value was inactive: 11.5%.
In the case of `NC1(C(=O)O)CCC1`, the Potency is reported as inconclusive: 12.6 µM [inhibitor, partial curve, poor fit].
`CCCC(=O)NC(=S)Nc1cccc(NC(=O)c2ccc(Cl)cc2Cl)c1` was tested, and the “activity, negative = inhibition” value was inactive: -5.61%.
For `O=C(c1cc2ccccc2oc1=O)N(Cc1cccs1)CC1CCCO1` (stereo unspecified), the “activity, negative = inhibition” value was inactive: -4.41%.
For `CCOC(=O)C1(Cc2ccc(OC)cc2)CCN(C(=O)Cc2cccnc2)CC1`, the Potency was inconclusive: 39.8 µM [inhibitor, single point].
With `CCn1c(SCC(=O)Nc2ccc(C(C)=O)cc2)nc2nc3c(cc2c1=O)CCCC3` the Potency was inconclusive: 14.1 µM [inhibitor, partial curve].
`CC(C)(C)C1CCc2oc3ccc(NS(=O)(=O)c4ccc(C(=O)O)cc4)cc3c2C1` (stereo unspecified) was tested, and the Potency was inconclusive: 0.0282 µM [inhibitor, full curve, poor fit].
For `COc1ccc(Cn2c(SCC(=O)N(C)Cc3ccccc3)nc3ccccc32)cc1`, the Potency was inconclusive: 31.6 µM [inhibitor, single point].
With `N#CCC(=O)N/N=C/c1cc([N+](=O)[O-])ccc1N1CCCC1` the Potency was inconclusive: 11.2 µM [inhibitor, partial curve].
With `Cc1ccccc1NC(=O)CCCSc1nc2ccccc2s1` the Potency was inconclusive: 3.98 µM [inhibitor, full curve, poor fit].
With `O=C(c1ccco1)n1nc(-c2cccnc2)nc1NCc1ccco1` the Potency was inconclusive: 31.6 µM [inhibitor, single point].
For `COc1ccc(Nc2oc(-c3ccc(COc4ccccc4C)o3)nc2C#N)cc1`, the “activity, negative = inhibition” value was inactive: -9.2%.
With `O=C1CCCc2ccccc2N1` the Potency was inconclusive: 25.1 µM [inhibitor, partial curve].
`COc1cc(-c2nnc(SCc3cc(=O)oc4cc(O)c(O)cc34)o2)cc(OC)c1OC` was tested, and the Potency was inconclusive: 15.8 µM [inhibitor, partial curve].
With `COc1ccc(N2CCN(C(=O)CSc3n[nH]c(-c4ccccc4Cl)n3)CC2)cc1` the Potency was inconclusive: 12.6 µM [inhibitor, partial curve].
With `O=C(N/N=C/c1ccc(O)cc1)/C(=C/c1ccccc1)CCO` the Potency was inconclusive: 35.5 µM [inhibitor, single point].
For `CCOc1ccc(/C=C/[N+](=O)[O-])c2ccccc12`, the Potency was inconclusive: 17.8 µM [inhibitor, partial curve].
In the case of `Nc1c(C(=O)Nc2cccc(Cl)c2Cl)sc2nc(-c3cccnc3)ccc12`, the Potency is reported as inconclusive: 0.891 µM [inhibitor, full curve].
`Cc1nc2scc(C)n2c(=O)c1S(=O)(=O)NCCc1ccccc1` was tested, and the “activity, negative = inhibition” value was inactive: -2.1%.
In the case of `Cc1noc(/C=C/c2ccco2)c1S(=O)(=O)N1CCC(C(=O)NC(C)c2ccccc2)CC1` (stereo unspecified), the “activity, negative = inhibition” value is reported as inactive: -17.7%.
With `COc1ccc(CCNC(=S)NC(=O)c2cccc(Cl)c2)cc1OC` the Potency was inconclusive: 14.1 µM [inhibitor, partial curve, poor fit].
In the case of `COCCNC(=O)CSc1nc2cc(OC)c(OC)cc2c(=O)n1Cc1ccc(OC)cc1`, the “activity, negative = inhibition” value is reported as inactive: 3.95%.
`Cc1ccc(NC(=O)CN2C(=O)N/C(=C/c3cc(C)n(-c4cccc(C(=O)O)c4)c3C)C2=O)cc1` was tested, and the Potency was inconclusive: 39.8 µM [inhibitor, single point].
With `CCN(CC)S(=O)(=O)c1ccc2nc(NC(=O)c3cncc(Br)c3)sc2c1` the “activity, negative = inhibition” value was inactive: 5.83%.
`CSc1ccc(/C=N/NC(=O)CNc2cccc3ccccc23)cc1` was tested, and the Potency was inconclusive: 1.58 µM [inhibitor, full curve].
In the case of `N#Cc1ccsc1NC(=O)c1cccc([N+](=O)[O-])c1`, the Potency is reported as inconclusive: 8.91 µM [inhibitor, partial curve].
For `CCOc1ccc(Cn2c3ccc(OC)cc3c3nc4ccccc4nc32)cc1OC`, the Potency was inconclusive: 7.94 µM [inhibitor, partial curve].
With `CCOc1ccc(NC(=O)Cn2c(=O)n(CC(=O)NCc3ccccc3Cl)c(=O)c3sccc32)cc1` the Potency was inconclusive: 28.2 µM [activator, single point].
With `O=C1c2ccccc2C(=O)N1CCCCSc1nc2ccccc2o1` the “activity, negative = inhibition” value was inactive: -11.4%.
With `CC(C)(C)c1ccc(C(=O)Nc2sc3c(c2C#N)CCC(C(C)(C)C)C3)cc1` (stereo unspecified) the “activity, negative = inhibition” value was inactive: -3.58%.
In the case of `O=C(Nc1ccc(Br)cc1)C1CCCN1S(=O)(=O)c1ccc(F)cc1` (stereo unspecified), the “activity, negative = inhibition” value is reported as inactive: 9.95%.
`CCN(c1ccccc1)S(=O)(=O)c1nnc(NC(=O)COc2cccc(C)c2)s1` was tested, and the Potency was inconclusive: 0.794 µM [inhibitor, full curve].
With `COc1ccc(-c2csc(-c3[nH]cnc3N)n2)cc1` the Potency was active: 11.2 µM.
In the case of `Cc1ccc(NC(=O)C2CCN(c3nn4cc(-c5ccc(C)cc5)nc4s3)CC2)cc1`, the Potency is reported as inconclusive: 1.58 µM [inhibitor, full curve].
With `O=C1NC(c2ccc(Br)cc2)=N/C1=C/c1ccco1` the Potency was inconclusive: 12.6 µM [inhibitor, partial curve].
In the case of `O=C(NN=C1C2CC3CC(C2)CC1C3)c1cccc(S(=O)(=O)N2CCOCC2)c1`, the “activity, negative = inhibition” value is reported as inactive: 7.42%.
For `CCCCCn1c(=O)[nH]c2cc(C(=O)N3CCN(c4cccc(C(F)(F)F)c4)CC3)ccc2c1=O`, the “activity, negative = inhibition” value was inactive: -8.35%.
`O=c1[nH]n(-c2ccc(F)cc2)c2ncccc12` was tested, and the “activity, negative = inhibition” value was inactive: -17.4%.
`Cc1cc(C)cc(-n2c(C)cc(/C=N\NC(=O)COc3cccc4cccnc34)c2C)c1` was tested, and the Potency was inconclusive: 28.2 µM [inhibitor, partial curve].
With `CCN(CC)S(=O)(=O)c1ccc(NC(=O)c2ccc(Sc3nncn3C)c([N+](=O)[O-])c2)cc1` the Potency was inconclusive: 15.8 µM [inhibitor, single point].
With `COc1cc(OC)c(C(=O)/C=C/c2ccccc2)c(O)c1O` the Potency was active: 12.6 µM.
With `Cc1ccc(-c2nc(C=Nc3cccc(C)c3)c(O)o2)cc1` the Potency was inconclusive: 2.51 µM [inhibitor, full curve, poor fit].
With `COc1ccc(N2CCN(Cc3nnc(-c4cccc(Br)c4)o3)CC2)cc1` the Potency was inconclusive: 12.6 µM [inhibitor, partial curve].
In the case of `CN(C)CCNc1oc(-c2ccc(COc3ccc(Cl)cc3)o2)nc1C#N`, the “activity, negative = inhibition” value is reported as inactive: -10.5%.
With `CC(C)(C)CC(=O)NC(=S)Nc1ccccc1[N+](=O)[O-]` the “activity, negative = inhibition” value was inactive: -0.303%.
With `CC(C)c1nn2c(=O)cc(COC(=O)c3ccccc3NC(=O)c3cccc(Cl)c3)nc2s1` the “activity, negative = inhibition” value was inactive: -2.6%.
With `FC(F)(F)c1ccccc1NC(=S)N1CCCC1` the “activity, negative = inhibition” value was inactive: 3.82%.
For `COC(=O)c1cc(C(=O)Nc2cc(C)ccn2)cc([N+](=O)[O-])c1`, the Potency was inconclusive: 25.1 µM [inhibitor, partial curve].
With `COc1ccc(N2C(=O)CC(Nc3cccc([N+](=O)[O-])c3)C2=O)cc1` (stereo unspecified) the Potency was inconclusive: 12.6 µM [inhibitor, partial curve, poor fit].
In the case of `COc1ccc(-n2cnc3cc(NCc4ccco4)ccc32)cc1`, the Potency is reported as inconclusive: 5.01 µM [inhibitor, full curve].
For `CCOC(=O)Cc1csc(NC(=O)CSc2ncnc3c2cnn3-c2ccccc2Cl)n1`, the Potency was inconclusive: 10 µM [inhibitor, partial curve].
With `O=C(O)c1cc([N+](=O)[O-])ccc1NCc1ccccc1Cl` the Potency was inconclusive: 22.4 µM [inhibitor, partial curve].
`Cc1c(N=Cc2ccc(Cl)o2)c(=O)n(-c2ccccc2)n1C` was tested, and the Potency was inconclusive: 28.2 µM [inhibitor, partial curve].
With `CCOc1ccc(Nc2nc3c(S(=O)(=O)c4ccc(C(C)C)cc4)nnn3c3ccsc23)cc1` the “activity, negative = inhibition” value was inactive: 7.88%.
For `CC(C)=C1C2C=CC1C1C(=O)N(c3ccc4c(c3)OCO4)C(=O)C21` (stereo unspecified), the Potency was inconclusive: 22.4 µM [inhibitor, single point].
In the case of `COc1ccc(S(=O)(=O)N(C)CC(=O)N2CCN(Cc3ccccc3)CC2)cc1C`, the “activity, negative = inhibition” value is reported as inactive: -9.27%.
With `COc1ccc(C(=O)/C=C/c2ccc(OC)cc2OC)c(O)c1` the Potency was active: 17.8 µM.
In the case of `O=C(O)c1cccc(N/N=C/C2=C(Cl)c3cc(Cl)ccc3SC2)c1`, the Potency is reported as active: 6.31 µM.
In the case of `O=C(c1ccc([N+](=O)[O-])cc1)N1CCc2ccccc2C1`, the “activity, negative = inhibition” value is reported as inactive: -3.06%.
In the case of `C[C@@H](O)C1NC(=O)[C@H](CCCCN)NC(=O)c2cc([N+](=O)[O-])cc(I)c2OCC[C@@H](C(N)=O)NC1=O` (stereo partly specified), the Potency is reported as inconclusive: 20 µM [inhibitor, partial curve, poor fit].
For `CCCCc1nc2c(c3c1C[C@H](C)OC3)CN(C(=O)C1CC1)CC2`, the activity, negative = inhibition was inactive: 7.12% [at 11.5 µM].
With `COc1ccc(Cl)cc1NC(=O)C1CSC(c2ccncc2)=N1` (stereo unspecified) the Potency was inconclusive: 28.2 µM [inhibitor, single point].
`Cc1ccc(C)c(Cn2c(C(=O)OC(C)C)cc3c2ccn3C)c1` was tested, and the Potency was inconclusive: 22.4 µM [inhibitor, partial curve].
In the case of `O=C1CN(c2nc(-c3cccnc3)nc3scc(-c4ccccc4)c23)CCN1`, the Potency is reported as inconclusive: 31.6 µM [inhibitor, partial curve, poor fit].
